Laboratory results as given in PubChem BioAssay AID588591 (National Center for Advancing Translational Sciences (NCATS), 2011).
Screen size: about 390,000 compounds; about 4,700 (1.2%) were called active. Another 4% or so got no clear call; they are omitted. Calls come from the whole dose curve; as a rule, active = well fitted inhibition curve with a large enough effect; inconclusive = small, poorly fitted or top-dose-only effect, or another doubt; inactive = no such curve, though single readings can be large or run the other way. This is a selection; strong and weak results do not stand in their true shares.

biological target: DNA polymerase eta (Homo sapiens) (UniProt Q9Y253); experiment: qHTS for Inhibitors of Polymerase Eta; settings: recombinant Pol eta, fluorescent DNA replication assay; series mostly up to 114 µM; activity change, negative = inhibition: at the top concentration
Method in brief: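 Pol eta (10 nM) was preincubated with compounds for 15 min at room temperature, after which fluorescent replication substrate (50 nM final) was added to start the reaction. Fluorescence was read kinetically at 0 and 10 min.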
% is set by controls: 0 for no effect and ±100 for the full control effect; potency is the fitted concentration of half-maximal effect.

Chain of UniProt Q9Y253 (Q9Y253 whole entry, looked up): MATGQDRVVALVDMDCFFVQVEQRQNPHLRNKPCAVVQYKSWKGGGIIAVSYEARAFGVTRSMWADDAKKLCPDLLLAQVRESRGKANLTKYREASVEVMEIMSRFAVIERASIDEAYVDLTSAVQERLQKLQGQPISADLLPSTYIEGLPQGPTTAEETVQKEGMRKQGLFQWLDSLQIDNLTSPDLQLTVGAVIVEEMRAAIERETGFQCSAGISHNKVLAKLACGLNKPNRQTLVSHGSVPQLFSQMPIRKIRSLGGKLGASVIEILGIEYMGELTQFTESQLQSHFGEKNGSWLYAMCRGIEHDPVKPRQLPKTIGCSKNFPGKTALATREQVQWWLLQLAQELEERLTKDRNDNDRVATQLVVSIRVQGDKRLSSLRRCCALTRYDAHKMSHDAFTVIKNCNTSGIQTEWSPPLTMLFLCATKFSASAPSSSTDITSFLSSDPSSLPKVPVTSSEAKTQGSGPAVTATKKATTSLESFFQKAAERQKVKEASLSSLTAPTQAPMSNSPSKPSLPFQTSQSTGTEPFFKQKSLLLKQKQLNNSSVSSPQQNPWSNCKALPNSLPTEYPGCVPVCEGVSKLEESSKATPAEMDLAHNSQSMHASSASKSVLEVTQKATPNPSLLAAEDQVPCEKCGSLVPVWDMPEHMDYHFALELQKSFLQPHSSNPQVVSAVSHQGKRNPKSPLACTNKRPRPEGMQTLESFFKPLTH

Structure (SMILES)	activity change, negative = inhibition	Potency
COC(=O)c1ccc(C2NC(=O)c3c(sc(C)c3C)N2)cc1 (stereo unspecified)	inactive: 35.2%	–
CCOc1ccccc1N1CC(C(=O)N(CC)C2CCS(=O)(=O)C2)CC1=O (stereo unspecified)	–	active: 50.1 µM
Cc1cc(=O)[nH]c(SCC(=O)c2ccc(O)c(O)c2)n1	–	active: 17.8 µM
CC[C@@H]1Cc2cc(O)ccc2C2=C1c1ccc(O)cc1C[C@H]2CC	inactive: -9.3% [at 57.1 µM]	–
O=C1NC(=S)/C(=C\c2ccc(-c3ccccc3Cl)o2)S1	–	active: 15.8 µM
COc1ccccc1NS(=O)(=O)c1cccc(-n2c(O)c(C=Nc3ccccc3C(=O)O)c3ccccc3c2=O)c1	–	active: 20 µM
S=c1[nH]nc(-c2ccncc2)n1/N=C/c1cccc(Cl)c1	inactive: 30.1%	–
c1cncc(-c2nc(N3CCOCC3)c3ccccc3n2)c1	inactive: 32.7%	–
Cc1c(CCOC(=O)C2C3CC4CC(C3)CC2C4)sc[n+]1CC(=O)c1ccc(Br)cc1 (stereo unspecified)	inactive: -18.8%	–
O=C(O)COc1cccc(NC(=O)c2ccccc2)c1	–	active: 79.4 µM
CCN(CC)C(=O)COc1ccc(N(C)S(=O)(=O)c2ccc(NC(C)=O)cc2)cc1	inactive: 33.8%	–
O=C1ON=C(c2ccccc2)/C1=C/c1ccc(-c2ccccc2[N+](=O)[O-])o1	–	active: 22.4 µM
C[C@]12C(=O)N(c3ccccc3)C(=O)N1[C@@H]1c3ccccc3OC[C@@H]1[C@H]2c1ccccc1	inactive: -11.2%	–
CC1=CC(=O)c2ccccc2C1=O	inactive: -11%	–
O=C1C(F)=CC(COC(c2ccccc2)(c2ccccc2)c2ccccc2)OC1n1cc(F)c(=O)[nH]c1=O (stereo unspecified)	–	active: 50.1 µM
O=C1NC(=Nc2ccccc2)S/C1=C/c1cccs1	inactive: 6.19%	–
O=c1[nH]c(/C=C\c2cccnc2)c([N+](=O)[O-])c(=O)[nH]1	inactive: -5.23%	–
CCN1C(=O)/C(=C/c2nc3ccccc3c(=O)n2-c2ccccc2)c2ccccc21	inactive: -16.5%	–
Cn1c(-n2cccc2)c(-c2c(-c3ccccc3)[nH]c3c2c(=O)[nH]c(=O)n3C)c(=O)[nH]c1=O	–	active: 79.4 µM
COC(=O)CCC(=O)OC1(C)C(=O)C=C2C=C(C3CC3)N(CCCOC(C)C)C=C2C1=O (stereo unspecified)	–	active: 89.1 µM
O=C(Nc1ccc(Cl)cc1F)c1cc(S(=O)(=O)NCc2ccc3c(c2)OCO3)ccc1F	inactive: 16.3%	–
COc1ccc(-c2cc(-c3ccccc3)nc(=O)[nH]2)cc1	inactive: 47.2%	–
CCCN1C(=O)C2C(C(=O)Nc3cccc(OC)c3)C3C=CC2(O3)C1C(=O)NC1CCCCC1 (stereo unspecified)	inactive: 1.36%	–
CCOc1ccc(NC(=O)CCn2nc(C)c(S(=O)(=O)N3CCCCC3)c2C)cc1	inactive: -18.5%	–
Cc1cc(=O)n(CC(=O)NC(C)c2ccccc2)c2c1c(C)nn2C (stereo unspecified)	–	active: 39.8 µM
CCOc1ccccc1N(C(=O)CNC(=O)c1ccco1)C(C(=O)NC1CCCC1)c1cccnc1 (stereo unspecified)	inactive: 10.4%	–
